Some of the results follow. Cut-off read from the data, not from the text of the source: active = 3.2 or more and inactive = the rest. Only a few entries rise above the background.
The binders below were run against SHP2 C-SH2 domain E139D (assay: enrichment score (SH2-bound / input frequency) (ratio); bacterial display of known human phosphotyrosine sites (pTyr-Var adds point mutants) read by sequencing; higher = stronger binding; tyrosines were phosphorylated by kinases first). Conditions: peptide library: pTyr-Var.
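Note: displayed peptides selected on beads carrying the immobilized SH2 domain, with library peptides lacking any tyrosine serving as negative controls.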

| Binder | enrichment score |
| --- | --- |
| FGEFRYRSVIK [CFTR_Y517_D513G_YF] | inactive: 0.492 |
| EEVKAYLDFGE [CHAC2_Y78_R82G] | inactive: 1.19 |
| IRKKYYRAILE [CHD7_Y1218_Q1214R] | inactive: 0.276 |
| IRKKFYRAILE [CHD7_Y1218_Q1214R_YF] | inactive: 0.469 |
| DHYNQYEQQKM [CHD7_Y75] | inactive: 0.506 |
| DHFNQYEQQKM [CHD7_Y75_YF] | inactive: 0.677 |
| CGTPTCLAPEV [CHEK2_Y390_Y390C] | inactive: 0.873 |
| FRARAYGFRGP [CHGA_Y381] | inactive: 0.255 |
| FRARAYSFRGP [CHGA_Y381_G382S] | inactive: 0.214 |
| TINPIHEHVGF [CHN1_Y143_Y143H_YF] | inactive: 1.2 |
| YEHVGYTTLNR [CHN1_Y148] | inactive: 1.13 |
| FEHVGYTTLNR [CHN1_Y148_YF] | inactive: 1.6 |
| YAFQLYDLDPD [CHP2_Y123_R127P] | inactive: 1.31 |
| FAFQLYDLDPD [CHP2_Y123_R127P_YF] | inactive: 1.86 |
| MNLLGYRHVRS [CHST4_Y359] | inactive: 0.479 |
| EACPSYSHVVL [CHST6_Y168_R166P] | inactive: 0.654 |
| GYRPVYSEDEQ [CHST6_Y362] | inactive: 0.788 |
| GDRPVYSEDEQ [CHST6_Y362_Y358D] | inactive: 0.616 |

Each binder was assayed against SHP2 C-SH2 domain wild-type in the same assay as above. Conditions: peptide library: pTyr-Var.

| Binder | enrichment score |
| --- | --- |
| FGEFRYRSVIK [CFTR_Y517_D513G_YF] | inactive: 0.479 |
| EEVKAYLDFGE [CHAC2_Y78_R82G] | inactive: 1.35 |
| IRKKYYRAILE [CHD7_Y1218_Q1214R] | inactive: 0.36 |
| IRKKFYRAILE [CHD7_Y1218_Q1214R_YF] | inactive: 0.385 |
| DHYNQYEQQKM [CHD7_Y75] | inactive: 0.461 |
| DHFNQYEQQKM [CHD7_Y75_YF] | inactive: 0.508 |
| CGTPTCLAPEV [CHEK2_Y390_Y390C] | inactive: 1.01 |
| FRARAYGFRGP [CHGA_Y381] | inactive: 0.317 |
| FRARAYSFRGP [CHGA_Y381_G382S] | inactive: 0.19 |
| TINPIHEHVGF [CHN1_Y143_Y143H_YF] | inactive: 0.944 |
| YEHVGYTTLNR [CHN1_Y148] | inactive: 3.16 |
| FEHVGYTTLNR [CHN1_Y148_YF] | active: 3.96 |
| YAFQLYDLDPD [CHP2_Y123_R127P] | inactive: 2.07 |
| FAFQLYDLDPD [CHP2_Y123_R127P_YF] | inactive: 1.58 |
| MNLLGYRHVRS [CHST4_Y359] | inactive: 0.457 |
| EACPSYSHVVL [CHST6_Y168_R166P] | inactive: 0.901 |
| GYRPVYSEDEQ [CHST6_Y362] | inactive: 0.595 |
| GDRPVYSEDEQ [CHST6_Y362_Y358D] | inactive: 0.375 |

These binders were tested against SHP2 N-SH2 domain L43F in the same assay as above. Conditions: peptide library: pTyr-Var.

| Binder | enrichment score |
| --- | --- |
| FGEFRYRSVIK [CFTR_Y517_D513G_YF] | inactive: 0.538 |
| EEVKAYLDFGE [CHAC2_Y78_R82G] | inactive: 0.861 |
| IRKKYYRAILE [CHD7_Y1218_Q1214R] | inactive: 0.287 |
| IRKKFYRAILE [CHD7_Y1218_Q1214R_YF] | inactive: 0.257 |
| DHYNQYEQQKM [CHD7_Y75] | inactive: 0.601 |
| DHFNQYEQQKM [CHD7_Y75_YF] | inactive: 0.803 |
| CGTPTCLAPEV [CHEK2_Y390_Y390C] | inactive: 1.04 |
| FRARAYGFRGP [CHGA_Y381] | inactive: 0.431 |
| FRARAYSFRGP [CHGA_Y381_G382S] | inactive: 0.247 |
| TINPIHEHVGF [CHN1_Y143_Y143H_YF] | inactive: 1.18 |
| YEHVGYTTLNR [CHN1_Y148] | inactive: 0.77 |
| FEHVGYTTLNR [CHN1_Y148_YF] | inactive: 0.916 |
| YAFQLYDLDPD [CHP2_Y123_R127P] | inactive: 1.37 |
| FAFQLYDLDPD [CHP2_Y123_R127P_YF] | inactive: 1.6 |
| MNLLGYRHVRS [CHST4_Y359] | inactive: 0.467 |
| EACPSYSHVVL [CHST6_Y168_R166P] | inactive: 0.693 |
| GYRPVYSEDEQ [CHST6_Y362] | inactive: 0.832 |
| GDRPVYSEDEQ [CHST6_Y362_Y358D] | inactive: 0.349 |

Each binder was assayed against SHP2 N-SH2 domain T42A in the same assay as above. Conditions: peptide library: pTyr-Var.

| Binder | enrichment score |
| --- | --- |
| FGEFRYRSVIK [CFTR_Y517_D513G_YF] | inactive: 0.508 |
| EEVKAYLDFGE [CHAC2_Y78_R82G] | inactive: 1.19 |
| IRKKYYRAILE [CHD7_Y1218_Q1214R] | inactive: 0.383 |
| IRKKFYRAILE [CHD7_Y1218_Q1214R_YF] | inactive: 0.436 |
| DHYNQYEQQKM [CHD7_Y75] | inactive: 0.385 |
| DHFNQYEQQKM [CHD7_Y75_YF] | inactive: 0.596 |
| CGTPTCLAPEV [CHEK2_Y390_Y390C] | inactive: 0.727 |
| FRARAYGFRGP [CHGA_Y381] | inactive: 0.295 |
| FRARAYSFRGP [CHGA_Y381_G382S] | inactive: 0.243 |
| TINPIHEHVGF [CHN1_Y143_Y143H_YF] | inactive: 1.04 |
| YEHVGYTTLNR [CHN1_Y148] | inactive: 2.33 |
| FEHVGYTTLNR [CHN1_Y148_YF] | active: 3.34 |
| YAFQLYDLDPD [CHP2_Y123_R127P] | inactive: 1.19 |
| FAFQLYDLDPD [CHP2_Y123_R127P_YF] | inactive: 1.5 |
| MNLLGYRHVRS [CHST4_Y359] | inactive: 0.493 |
| EACPSYSHVVL [CHST6_Y168_R166P] | inactive: 1.17 |
| GYRPVYSEDEQ [CHST6_Y362] | inactive: 0.422 |
| GDRPVYSEDEQ [CHST6_Y362_Y358D] | inactive: 0.493 |

The binders below were run against SHP2 N-SH2 domain T52S in the same assay as above. Conditions: peptide library: pTyr-Var.

| Binder | enrichment score |
| --- | --- |
| FGEFRYRSVIK [CFTR_Y517_D513G_YF] | inactive: 0.607 |
| EEVKAYLDFGE [CHAC2_Y78_R82G] | inactive: 0.911 |
| IRKKYYRAILE [CHD7_Y1218_Q1214R] | inactive: 0.352 |
| IRKKFYRAILE [CHD7_Y1218_Q1214R_YF] | inactive: 0.29 |
| DHYNQYEQQKM [CHD7_Y75] | inactive: 0.446 |
| DHFNQYEQQKM [CHD7_Y75_YF] | inactive: 0.548 |
| CGTPTCLAPEV [CHEK2_Y390_Y390C] | inactive: 1.03 |
| FRARAYGFRGP [CHGA_Y381] | inactive: 0.317 |
| FRARAYSFRGP [CHGA_Y381_G382S] | inactive: 0.213 |
| TINPIHEHVGF [CHN1_Y143_Y143H_YF] | inactive: 0.967 |
| YEHVGYTTLNR [CHN1_Y148] | inactive: 0.707 |
| FEHVGYTTLNR [CHN1_Y148_YF] | inactive: 0.906 |
| YAFQLYDLDPD [CHP2_Y123_R127P] | inactive: 1.12 |
| FAFQLYDLDPD [CHP2_Y123_R127P_YF] | inactive: 1.64 |
| MNLLGYRHVRS [CHST4_Y359] | inactive: 0.494 |
| EACPSYSHVVL [CHST6_Y168_R166P] | inactive: 0.724 |
| GYRPVYSEDEQ [CHST6_Y362] | inactive: 0.587 |
| GDRPVYSEDEQ [CHST6_Y362_Y358D] | inactive: 0.398 |

Each binder was assayed against SHP2 N-SH2 domain wild-type in the same assay as above. Conditions: peptide library: pTyr-Var.

| Binder | enrichment score |
| --- | --- |
| FGEFRYRSVIK [CFTR_Y517_D513G_YF] | inactive: 0.691 |
| EEVKAYLDFGE [CHAC2_Y78_R82G] | inactive: 1.11 |
| IRKKYYRAILE [CHD7_Y1218_Q1214R] | inactive: 0.318 |
| IRKKFYRAILE [CHD7_Y1218_Q1214R_YF] | inactive: 0.425 |
| DHYNQYEQQKM [CHD7_Y75] | inactive: 0.387 |
| DHFNQYEQQKM [CHD7_Y75_YF] | inactive: 0.689 |
| CGTPTCLAPEV [CHEK2_Y390_Y390C] | inactive: 1.08 |
| FRARAYGFRGP [CHGA_Y381] | inactive: 0.202 |
| FRARAYSFRGP [CHGA_Y381_G382S] | inactive: 0.272 |
| TINPIHEHVGF [CHN1_Y143_Y143H_YF] | inactive: 1.09 |
| YEHVGYTTLNR [CHN1_Y148] | inactive: 0.647 |
| FEHVGYTTLNR [CHN1_Y148_YF] | inactive: 0.713 |
| YAFQLYDLDPD [CHP2_Y123_R127P] | inactive: 0.797 |
| FAFQLYDLDPD [CHP2_Y123_R127P_YF] | inactive: 1.81 |
| MNLLGYRHVRS [CHST4_Y359] | inactive: 0.508 |
| EACPSYSHVVL [CHST6_Y168_R166P] | inactive: 0.843 |
| GYRPVYSEDEQ [CHST6_Y362] | inactive: 0.674 |
| GDRPVYSEDEQ [CHST6_Y362_Y358D] | inactive: 0.601 |

Source: the supplement of paper PMC10369915
